Laboratory results published in PubChem BioAssay AID686978 (National Center for Advancing Translational Sciences (NCATS), 2013).
Screen size: about 420,000 compounds; about 64,000 (15%) were called active. The shares of active, inactive and inconclusive entries below differ from those in the screen. The call rests on the fitted dose curve; in most records, active means well fitted inhibition curve with a large enough effect; inconclusive means small, poorly fitted or top-dose-only effect; inactive means flat fitted curve, though single readings scatter. Potencies of inconclusive entries are left out as doubtful fits.

Assay: qHTS for Inhibitors of human tyrosyl-DNA phosphodiesterase 1 (TDP1): qHTS in cells in absence of CPT; further: nearly all actives have a fitted effect of over 55% in size
Details: DT40 Tdp1-/- hTDP1 cells, no CPT, ATP luminescence, 48 h; activity change, negative = growth inhibition: at 46.2 µM (top of the series) unless noted
How it was run: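 Readout: luminescence from CellTiter-Glo after 30 min in the dark at RT. Cells: DT40 Tdp1-/- with stable hTDP1, 400/well. Exposure: compounds alone, ≥48 hr, 37 °C.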
On the % scale 0 is the no-effect control and ±100 the full control effect; potency means the concentration at half of the fitted maximal effect; tags describe the fitted curve by direction and shape.

Structure (SMILES) | Potency | activity change, negative = growth inhibition
c1ccc(-n2nnnc2SCc2cn3cccnc3n2)cc1 | inactive | –
COc1ccc(CC(N)c2csc(NC(=O)Nc3ccccc3C(C)(C)C)n2)cc1 (stereo not given) | inconclusive [inhibitor, single point] | –
O=C(CCc1ccccc1)Nc1cc2c3c(c1)CC(=O)N3CCC2 | – | inconclusive: -31.1% [inhibitor]
O=C(O)c1ccc(CNC(=O)C2CCN(S(=O)(=O)c3ccc4c(c3)OCCO4)CC2)cc1 | inactive | –
O=C(NCCC1=CCCCC1)c1c(O)nc2ccccn2c1=O | active: 14.6 µM | –
Cc1ccc(CNC(=O)Nc2ccc(OC(F)(F)F)cc2)n1C | – | inconclusive: -34.8% [inhibitor]
COC(=O)c1[nH]c2ccccc2c1NC(=O)CN1CCN(C/C=C/c2ccccc2)CC1 | inconclusive [inhibitor, single point] | –
NC(=O)CN1CCN(C2CC(=O)N(CCc3ccccc3)C2=O)CC1 (stereo not given) | inactive | –
CCOC(=O)c1csc(N)c1-c1ccc([N+](=O)[O-])cc1 | inconclusive [inhibitor, single point] | –
O=[N+]([O-])c1cccc(S(=O)(=O)NCC2CC3CCC2C3)c1 (stereo not given) | inconclusive [inhibitor, single point] | –
COCC(=O)OC1CCn2c1nc1c2C(=O)C(C)=C(NC(C)=O)C1=O (stereo not given) | active: 2.31 µM | –
Cc1ccc(NC(=O)COC(=O)Cn2c(C)csc2=O)c([N+](=O)[O-])c1 | inconclusive [inhibitor, partial curve] | –
CC(C)c1cccc(-c2csc(C(C)(O)c3ccc(F)c(F)c3)n2)c1 (stereo not given) | inconclusive [inhibitor, single point] | –
C=CCc1cc(Cl)ccc1OCCn1ccnc1 | – | inconclusive: -11.4% [inhibitor]
Cc1cccc(CN2CCC(C(=O)Nc3ccc(Oc4cccnc4)cc3)CC2)c1 | inconclusive [inhibitor, single point] | –
CCCCN(CC)CCNC(=O)c1cn(-c2ccc(Cl)cc2)c(=O)c2ccccc12 | inconclusive [inhibitor, partial curve] | –
COc1ccc(Cl)cc1NC(=O)CSc1nc(N2CCOCC2)nc(N2CCOCC2)n1 | inconclusive [inhibitor, single point] | –
CCCCC(=O)Nc1ccc(C(=O)Nc2nc(CC(=O)OCC)cs2)cc1 | inconclusive [inhibitor, partial curve] | –
O=C(CN1CCN(Cc2ccccc2)CC1)NNC(=O)c1ccc(Cl)cc1 | inactive | –
O=C1CN(C(=O)COC(=O)c2ccc[n+]([O-])c2)c2ccccc2N1 | inconclusive [inhibitor, single point] | –
CC(C)c1nnc(NC(=O)CC(C)c2ccccc2)s1 (stereo not given) | inactive | –
COCCCNC(=O)C[C@@H]1C[C@@]2(C(=O)OC)CC(C)(C)CC=C2N(Cc2cccc3ccccc23)C1=O | inconclusive [inhibitor, single point] | –

Structure (SMILES) | Potency | activity change, negative = growth inhibition
CCOC(=O)Cn1ccc2cc(S(=O)(=O)N3CCCC3)ccc21 | inactive | –
COc1ccc(C(O)c2ncc(-c3ccccc3Cl)[nH]2)cc1F (stereo not given) | inactive | –
CCOc1ccc(CNCCc2ccc(S(N)(=O)=O)cc2)cc1 | inconclusive [inhibitor, partial curve, poor fit] | –
CCCCCCNC(=O)C(=O)NCCc1ccc(Cl)cc1 | inconclusive [inhibitor, single point] | –
Cc1cc(-n2cnnn2)cc(C)c1S(=O)(=O)N(C)c1ccccc1 | inconclusive [inhibitor, single point] | –
Cc1ccc(S(=O)(=O)N2CCN(CC(=O)N/N=C/c3cc([N+](=O)[O-])ccc3Cl)CC2)cc1 | inconclusive [inhibitor, single point] | –
Cc1ccc(/C=C/C(=O)c2nc3ccccc3[nH]2)cc1 | active: 16.4 µM | –
Cc1cccc(N(Cc2cc3ccccc3[nH]c2=O)S(=O)(=O)c2ccccc2)c1 | inconclusive [inhibitor, single point] | –
COc1ccc(NC(=O)CSCC(=O)Nc2ccccc2C(=O)N2CCCCC2)cc1 | inactive | –
COc1ccccc1N=NNc1ccc(S(=O)(=O)NC(C)=O)cc1 | inconclusive [inhibitor, single point] | –
COc1ccc(S(=O)(=O)Nc2ccc3c(c2)C(=O)N([C@H](C)CO)C[C@H](C)[C@@H](CN(C)Cc2ccncc2)OCCCC[C@@H](C)O3)cc1 | inconclusive [inhibitor, full curve, poor fit] | –
CCN(C(=O)c1cnc2scc(C)n2c1=O)c1ccccc1C | inconclusive [inhibitor, partial curve] | –
COc1ccc(NC(=S)N(CCCN2CCOCC2)Cc2ccco2)cc1 | inactive | –
Cn1c(SCC(=O)c2ccc(F)cc2)ncc(C(=O)Nc2ccccc2)c1=O | inconclusive [inhibitor, single point] | –
O=C1c2ccccc2C(c2nnnn2-c2ccc3c(c2)OCCO3)N1Cc1ccc(F)cc1 (stereo not given) | inconclusive [inhibitor, single point] | –
CC(=O)Oc1c(-c2ccc(Br)o2)oc2ccccc2c1=O | active: 14.6 µM | –
CCCCSc1ncnc2[nH]ncc12 | inactive | –
C/C(CC(=O)Nc1ccc(N(C)C)cc1)=N\NC(=O)c1ccc([N+](=O)[O-])cc1Cl | active: 20.6 µM | –
CCN(CC)C(=O)[C@H]1C[C@H](CC(=O)NC/C=C(\C)CCC=C(C)C)C(=O)N2CCc3c([nH]c4cc(CCC(=O)N(C)C)ccc34)[C@]12C | active: 14.6 µM | –
O=C(NCc1ccco1)C(c1ccccc1)N(CC1CCCO1)C(=O)Cn1nnc2ccccc21 (stereo not given) | – | inconclusive: -30.3% [inhibitor]
Cc1ccc(C)c(NC(=O)c2ccc3c(c2)CCN3S(C)(=O)=O)c1 | inconclusive [inhibitor, single point] | inconclusive: -32.7% [inhibitor]
CCNC(=O)CSc1nnc(-c2cccc(S(=O)(=O)N3CCOCC3)c2)o1 | inactive | –
